# The full ranking holds about 33,000 sequences; the median of “E-score (-0.5 to 0.5)” is about -0.016, and the highest 2% start at about 0.32. The list shows a part of the results.
# Biological target: T1, Stp1 (UniProt B3LFK1)
# T1 sequence: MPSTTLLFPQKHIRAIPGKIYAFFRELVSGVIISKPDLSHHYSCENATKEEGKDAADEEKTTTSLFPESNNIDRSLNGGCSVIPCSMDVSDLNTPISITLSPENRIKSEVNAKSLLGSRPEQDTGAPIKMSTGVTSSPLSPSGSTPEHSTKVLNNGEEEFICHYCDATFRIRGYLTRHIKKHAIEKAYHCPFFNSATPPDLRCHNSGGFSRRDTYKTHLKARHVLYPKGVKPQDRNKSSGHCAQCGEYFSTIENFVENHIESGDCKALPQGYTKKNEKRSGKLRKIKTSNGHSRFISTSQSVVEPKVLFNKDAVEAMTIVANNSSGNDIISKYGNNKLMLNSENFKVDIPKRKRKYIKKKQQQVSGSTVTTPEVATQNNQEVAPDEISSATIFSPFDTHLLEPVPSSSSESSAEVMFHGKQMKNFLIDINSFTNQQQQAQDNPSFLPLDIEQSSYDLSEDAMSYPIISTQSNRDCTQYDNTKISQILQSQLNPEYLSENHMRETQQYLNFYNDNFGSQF
# Experiment: PBM E-score (8-mer binding enrichment) (E-score (-0.5 to 0.5)); higher = stronger / more preferred TF binding; most listed sequences are background and not binding sites
# Settings: protein concentration: 200 nM; construct: GST-full length
# Experimental: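 Universal 'all 10-mer' protein binding microarrays (Agilent AMADID 015681) probed with GST-tagged S. cerevisiae TFs (full-length or DBD) made by in vitro transcription/translation (PURExpress), about 100-200 nM. Bound TF was detected with fluorescent anti-GST. Each ungapped 8-mer (which stands for itself and its reverse complement) is scored by the PBM enrichment score (E-score), a modified Wilcoxon-Mann-Whitney statistic from -0.5 to +0.5, computed with the Universal PBM Analysis Suite. Scale: above 0.35 generally sequence-specific binding.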
row,Sequence,PBM E-score
1,ATAGTCAC,0.0242
2,AGGATATC,0.084
3,CTCTACAC,-0.0754
4,ACCAGGTC,-0.234
5,AGACGAAC,0.00641
6,GGGCTCAC,-0.333
7,CATGTGGA,0.0109
8,ATCACACC,-0.146
9,AGCCTGAG,-0.156
10,CAGTTTTC,0.118
11,AGACAACC,0.0513
12,AATGTCAA,-0.0648
13,ATGCACAG,-0.118
14,CAGTCAAC,-0.139
15,AAAACAGG,-0.122
16,GGTCGGAA,-0.232
17,AGGACGTA,-0.245
18,CGATATGA,0.0106
19,GTAAGTGA,0.00308
20,ACTTGCTA,-0.131
21,ACAGGTTC,-0.138
22,CGATACCG,-0.087
23,AAGTAGGA,0.0589
24,CCCATCGA,-0.142
25,AGCAGCCC,-0.114

row,Sequence,PBM E-score
1,ACATAAAG,0.0197
2,GGGCTCTA,-0.0132
3,TATGCAGA,-0.0394
4,CATTAAGA,-0.0282
5,CATATTAC,0.0683
6,AATTACTA,0.0643
7,CCTTACGC,0.215
8,ACCCCCGT,-0.247
9,AATTGCTA,-0.00568
10,CTCCTCCC,-0.294
11,ATGAGTCG,-0.114
12,GACAGCTA,-0.157
13,AAACCAAG,0.24
14,ATTCTGGG,-0.201
15,CCCGCGGA,0.0756
16,AGACTCGC,-0.0934
17,ACGGGGCA,0.232
18,AATGCTGG,-0.115
19,AAGATACG,0.132
20,CGCATAAG,0.146
21,CATACTCC,-0.134
22,AGTTGCTG,0.0498
23,GCTGAAAC,0.0696
24,ATGCGGCC,0.331
25,GTCAGACA,-0.0208

row,Sequence,PBM E-score
1,GGAGACGA,0.072
2,CCCTTGCA,-0.163
3,GCCATGAA,0.0613
4,CATACGCG,0.133
5,ATACCAAC,0.0864
6,AATTGCTG,0.223
7,ACACGGCT,0.458
8,CTTCCGAA,0.0442
9,AGGACACA,0.194
10,GATGACGA,0.0124
11,TCCTAAAA,0.108
12,CACCAGAA,-0.101
13,GATCGTTA,-0.235
14,CCAGGCGA,-0.333
15,ATCAGCTG,0.16
16,CCAATGAC,-0.0281
17,TAACCCCA,-0.336
18,GCATCGAC,0.0997
19,CGGCCACC,0.0334
20,ATACACAG,-0.0396
21,GGGTTATA,-0.274
22,CATAAAGC,-0.0593
23,AGGAATAC,-0.126
24,TGGGGCAA,-0.00868
25,GCGGTCGA,-0.00151

row,Sequence,PBM E-score
1,CGGGTATC,-0.0414
2,TTAGGAAA,0.0994
3,AAGCTCCA,-0.181
4,ACCGGCCC,-0.239
5,CTAGAAGA,-0.0697
6,CGCCAGAA,0.0143
7,CATTCCAA,0.00793
8,ATAGCATC,-0.246
9,AATTTCGC,0.182
10,GATCCGGA,-0.028
11,ATATTTAG,0.285
12,CCCACGTA,-0.182
13,AGTCATGC,-0.0428
14,CCGTACGA,0.298
15,CCGGCCGC,-0.018
16,CAGGACAA,0.0438
17,GAAAATCA,0.0528
18,AAAAAAGG,-0.0327
19,CTGAAATC,-0.0485
20,CTCTAGGA,-0.188
21,ACAGTGTC,-0.0275
22,TGTCAAAA,0.132
23,ATTTTGGA,0.14
24,CACTTCCC,-0.00571
25,AATTGTAT,-0.0583

row,Sequence,PBM E-score
1,ACACTCAG,-0.0774
2,AGGAAATA,0.163
3,CTTCACCA,-0.129
4,GTTGTGTA,0.0351
5,CCTTTGCG,0.0542
6,AATTCTAT,0.00783
7,GGCCCGTA,-0.0728
8,ACTGAATC,-0.0944
9,GAGTCGTA,-0.114
10,AGCCCTGA,-0.242
11,AGGAATCA,0.0117
12,GTCTGTGA,-0.0363
13,AGTACTGC,-0.127
14,ATGTGCTG,0.0902
15,AGGAACCA,-0.0186
16,TCTAACAA,-0.0699
17,TCCCGGCA,-0.223
18,CCAATCAC,-0.036
19,CAAGAAAG,0.139
20,CCACCCCC,-0.417
21,CTTGTATA,0.131
22,CTCAATTA,0.0547
23,CGACACGA,0.119
24,AACGAAGC,-0.0297
25,CCAACGTC,-0.176

row,Sequence,PBM E-score
1,CCTTCTCC,-0.221
2,AGGCAGTC,-0.00564
3,GGTCCGCA,0.0875
4,ATCCTCAT,-0.126
5,ACCTGCAT,0.0821
6,CTAATAAG,0.0778
7,CGCATACC,0.173
8,AGGCGTAA,0.151
9,AAGGCATG,0.158
10,AAACCTGT,-0.155
11,ACATATTC,0.131
12,CAGACGGA,0.0941
13,ACTAGCAT,-0.069
14,ACCCTCCA,-0.199
15,AACGGGCT,-0.293
16,GGTGATTA,0.0978
17,AATCGGCC,-0.0295
18,CCGATCCA,-0.0288
19,AGCAACCG,-0.174
20,CATCAGGG,-0.169
21,CAAGTACA,-0.0267
22,CACGCTGG,-0.0359
23,CTGACTTC,-0.147
24,GGCCCCAC,-0.248
25,GAGTCGCA,-0.232

row,Sequence,PBM E-score
1,CAGGTGAG,-0.358
2,GGCAATGA,0.115
3,AAAGTTTC,0.0638
4,AGGTTGAC,-0.223
5,AAGGATTA,-0.103
6,GTACATTA,0.127
7,CTAGTTAC,-0.035
8,ATCAGACA,-0.029
9,AACTTGCG,0.106
10,AATTTGCA,-0.0371
11,GCGTAACA,0.0464
12,CCCATGGC,-0.0564
13,GTCAAACA,-0.0809
14,AGGGATAT,-0.19
15,CAGGGGCA,-0.0911
16,CTCCTTCA,-0.288
17,AGTTTGTG,0.0255
18,CTCATGAA,0.192
19,ATAAACAA,0.199
20,AATTTAAC,0.185
21,CACACTAC,-0.0876
22,ATCCACGG,0.222

# Reference: the supplement of paper PMC3334620
